# Laboratory results as given in PubChem BioAssay AID686979 (National Center for Advancing Translational Sciences (NCATS), 2013).
# The campaign covered roughly 420,000 compounds. About 50,000 (12%) were called active. Inconclusive results, whose numbers are uncertain, are shown with a selection of clear calls. The call rests on the fitted dose curve; in most records, active means well fitted inhibition curve with a large enough effect; inconclusive means small, poorly fitted or top-dose-only effect; inactive means flat fitted curve, though single readings scatter. Potencies of inconclusive entries are left out as doubtful fits.
# Assay: qHTS for Inhibitors of human tyrosyl-DNA phosphodiesterase 1 (TDP1): qHTS in cells in presence of CPT; further: nearly all actives have a fitted effect of over 55% in size
# Details: chicken DT40 Tdp1-/-;hTDP1 cells + 20 nM CPT, ATP luminescence, 48 h; activity change, negative = growth inhibition: at 46.2 µM (top of the series)
# Outline: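 Chicken DT40 Tdp1-/- cells stably complemented with human TDP1 were seeded at 400 cells/well in medium containing 20 nM camptothecin, exposed to pin-transferred compounds, and grown at 37 °C for at least 48 hr. Viability was read as ATP luminescence.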
# On the % scale 0 is the no-effect control and ±100 the full control effect; potency means the concentration at half of the fitted maximal effect; tags describe the fitted curve by direction and shape.
SMILES,Potency,"activity change, negative = growth inhibition"
Cc1ccc(C(=O)N2CCc3ccccc3C2)cc1S(=O)(=O)N1CCOCC1,"inconclusive [inhibitor, single point]",
CC(C)NC(=O)N(C)C[C@H]1OCc2cnnn2CCCC(=O)N([C@H](C)CO)C[C@H]1C,,inactive: 12.3%
Cc1ccc(C)c(C(O)c2ncc(-c3ccc(C(F)(F)F)cc3)[nH]2)c1 (configuration not stated),"inconclusive [inhibitor, single point]",
C[C@H](NC(=O)c1nc[nH]c1C(=O)N1CCNCC1)C(=O)OC(C)(C)C,,inactive: 6.6%
CCN(c1ccccc1)c1ncnc2c1cnn2-c1ccccc1,"inconclusive [inhibitor, single point]",
C=CCNC(=O)CSc1nc2ccccc2c(=O)n1CCc1ccc(OC)c(OC)c1,"inconclusive [inhibitor, partial curve]",
O=C(NCC1COCCO1)c1cc(COc2ccc(F)cc2F)on1 (configuration not stated),,inactive: -18.6%
COc1ccccc1NC(=O)C(Cc1ccccc1)NS(=O)(=O)c1cccc2nsnc12 (configuration not stated),"inconclusive [inhibitor, single point]",
CN1c2ccccc2C(C)(C)C12C=Nc1c(cc(N3CCOCC3)c3ccccc13)O2 (configuration not stated),"inconclusive [inhibitor, single point]",
CCOC(=O)C1=CCN(S(=O)(=O)c2ccccc2C)C1c1ccc(Cl)cc1 (configuration not stated),"inconclusive [inhibitor, single point]",
COc1ccc(CN(C)C(c2ccccc2)c2nnnn2-c2ccccc2C)c(OC)c1C (configuration not stated),"inconclusive [inhibitor, single point]",
N=c1c2c(-c3ccccc3)c(-c3ccccc3)oc2ncn1CCCN1CCOCC1,active: 20.6 µM,
COc1ccccc1-c1ccc(C(=O)N(C)C(C)c2ccon2)c(N2CCN(c3ccccc3F)CC2)n1 (configuration not stated),,inactive: 15.9% [at 9.04 µM]
CN1C(=O)C(C)(C)c2cc(S(=O)(=O)N3CCCC3C(=O)Nc3ccc(F)cc3)ccc21 (configuration not stated),"inconclusive [inhibitor, single point]",
CC(Oc1cc2oc(=O)c3c(c2cc1Cl)CCC3)C(=O)NCCCn1ccnc1 (configuration not stated),,inactive: -20%
Cc1cnc(C(=O)NCC(c2ccccc2)c2ccccc2)cn1,"inconclusive [inhibitor, partial curve]",
CC(C)(C)NC(=O)CSC(=Nc1cccc(F)c1)NC#N,"inconclusive [inhibitor, single point]",
CC(C)N(C(=S)Nc1cccc(C(F)(F)F)c1)C(C)c1ccccn1 (configuration not stated),,inactive: -8.57%
NCCCC[C@H]1CN=C(N)N1CCCCC1CCCCC1,"inconclusive [inhibitor, partial curve]",
COc1ccc(-c2csc(NC(=O)Cc3ccccc3F)n2)cc1OC,"inconclusive [inhibitor, single point]",
O=C(Nc1ccc(C(=O)N2CCCC2)cc1)c1ccc2c(c1)OCO2,"inconclusive [inhibitor, partial curve]",
O=C(O)C1=CC[C@@H](c2ccc(Cl)cc2)N(S(=O)(=O)c2ccc(Cl)cc2)[C@H]1c1cccc(Cl)c1,,inactive: -23%
COc1ccc(OC)c(NC(=O)CSc2nc3ccccc3c(=O)n2CCC(=O)NC2CCCCC2)c1,,inactive: -6.5%

SMILES,Potency,"activity change, negative = growth inhibition"
COc1ccc([C@H]2CC(=O)C=C(/C=C/c3ccc(C(F)(F)F)cc3)C2)cc1,"inconclusive [inhibitor, single point]",
COC(=O)c1ccc(Cl)cc1NC(=O)N(Cc1ccc(OC)cc1)C1CCN(C(C)=O)CC1,"inconclusive [inhibitor, single point]",
COc1ccc(-c2cc3nc(C)c(CCC(=O)N4CCN(c5ccccn5)CC4)c(C)n3n2)c(OC)c1,"inconclusive [inhibitor, partial curve]",
CCCCOC(=O)c1cccc(NC(=O)/C=C/c2ccccc2Cl)c1,"inconclusive [inhibitor, single point]",
CC(C)(C)n1nc2c(c1NC(=O)c1ccc(S(=O)(=O)N3CCCC3)cc1)CSC2,"inconclusive [inhibitor, single point]",
O=C(Cn1ncn2c(cc3ccccc32)c1=O)NCCc1cccs1,,inactive: -20.2%
CCCN(CC(=O)Nc1ccccc1OC)C(=O)c1ccncc1,,inactive: -2.14%
COc1cccc(-c2sc3ccc(OC)cc3c2-c2cnc(N3CCOCC3)nc2)c1,,inactive: -9.3%
CC(=O)N1CCSc2ccc(S(=O)(=O)NCc3ccc(F)cc3)cc21,"inconclusive [inhibitor, single point]",
Cc1cccc(NC(=O)c2ccc(CNS(=O)(=O)c3ccc4c(c3)C(C)(C)C(=O)N4C)cc2)c1,active: 20.6 µM,
Cc1nc2c(O)c3c(c(O)c2nc1C)C1C=CC3CC1,active: 0.461 µM,
COc1ccc(-c2sc3ccc(N4CCOCC4)cc3c2C#Cc2ccsc2)cc1,active: 18.4 µM,
CCCCCn1c2c(c(=N)c3ccccc31)CCC2,active: 1.84 µM,
Cc1nn2c(Nc3ccccc3)c3c(nc2c1-c1ccccc1)CCC3,"inconclusive [inhibitor, single point]",
COc1cc(OC)c(C(=O)Nc2cccc(C(C)=O)c2)cc1OC,"inconclusive [inhibitor, single point]",
Cc1ccc(N2CCN(C(=O)NCc3noc4ccc(C)cc34)CC2)c(C)c1,"inconclusive [inhibitor, single point]",
Cc1ccccc1C(=O)N(Cc1ccc(N(C)C)cc1)CC1CCCO1 (configuration not stated),"inconclusive [inhibitor, single point]",
CCN1CCC2(CC1)C(C#N)=C(N)Oc1c2sc2nc(C)cc(C)c12,"inconclusive [inhibitor, single point]",
Cc1cc(SCc2ccc(Cl)cc2Cl)nc(=O)[nH]1,"inconclusive [inhibitor, single point]",
Cc1ccc(S(=O)(=O)N[C@H](C(=O)Oc2ccc3c(C(F)(F)F)cc(=O)oc3c2)c2ccccc2)cc1,"inconclusive [inhibitor, single point]",
CCOc1ncccc1C(=O)Nc1ccc(OC)c(S(=O)(=O)N2CCCCC2)c1,"inconclusive [inhibitor, single point]",
N#CC(c1ccccn1)(c1ncc(C(F)(F)F)cc1Cl)N1CCOCC1 (configuration not stated),,inactive: -7.46%
CCOC(=O)c1ccccc1NC(=O)C1CC(=O)N(C2CCCC2)C1 (configuration not stated),"inconclusive [inhibitor, single point]",

SMILES,Potency,"activity change, negative = growth inhibition"
CCCCCCn1nc(C(=O)OCC(=O)c2c(N)n(C)c(=O)n(C)c2=O)c2ccccc2c1=O,active: 20.6 µM,
Cn1cc(Br)c(C(=O)Nc2sc3c(c2C(N)=O)CCCC3)n1,"inconclusive [inhibitor, single point]",
COc1ccc(-n2c(N)c(C(=O)NCC3CCCO3)c3nc4ccccc4nc32)c(OC)c1 (configuration not stated),"inconclusive [inhibitor, single point]",
CC(C)c1ccc2oc(=O)cc(CN3CCCCC3)c2c1,active: 29.1 µM,
CSc1cccc(NC(=S)N(CCCN2CCCC(C)C2)Cc2cccs2)c1 (configuration not stated),"inconclusive [inhibitor, single point]",
O=C(CSc1ncc(-c2ccc(F)cc2)n1Cc1ccco1)Nc1nccs1,"inconclusive [inhibitor, single point]",
CC(NC(=O)COC(=O)Cn1cc(C(F)(F)F)ccc1=O)c1ccccc1 (configuration not stated),"inconclusive [inhibitor, single point]",
O=C(CCN1CCN(Cc2ccccc2)CC1)Nc1ccc(OCc2ccccc2)cc1,"inconclusive [inhibitor, single point]",
CCN(CC)S(=O)(=O)c1cccc(C(=O)N/N=C/c2ccc([N+](=O)[O-])o2)c1,active: 20.6 µM,
CS(=O)(=O)N1CCN(c2ccc(C(=O)NC3C4CC5CC(C4)CC3C5)cc2[N+](=O)[O-])CC1 (configuration not stated),"inconclusive [inhibitor, single point]",
O=C1NC[C@H](Cc2ccccc2)N(CCc2cccc(F)c2)C1=O,,inactive: -14.2%
O=C(NCCOCCn1c(=O)oc2ccccc21)Nc1cccc(Cl)c1,active: 7.31 µM,
Cc1ccc(C2=NN(C(=S)Nc3ccccc3)C(c3ccco3)C2)cc1 (configuration not stated),"inconclusive [inhibitor, single point]",
CC(=O)Oc1cc(C)cc2oc(=O)cc(-c3ccccc3)c12,,inactive: -7.1%
Cc1cccc(C(=O)OCC(=O)N(C)CC(=O)Nc2ccc(Cl)c(C(F)(F)F)c2)c1,active: 14.6 µM,
COc1cc(/C=C/C(=O)OCC(=O)N2CCc3ccccc32)cc(OC)c1OC,"inconclusive [inhibitor, single point]",
COc1ccccc1NC(=O)CCN1CCN(c2ccc(Cl)cc2)CC1,active: 14.6 µM,
CCOC(=O)c1noc2ncnc(NCc3ccccc3OC)c12,"inconclusive [inhibitor, single point]",
CC(=O)N(C1=C(Cl)C(=O)c2ccccc2C1=O)c1ccc(C(=O)O)cc1,"inconclusive [inhibitor, single point]",
COc1ccccc1NC(=O)CSC1=Nc2ccccc2C2=NC(CC(=O)NCc3ccc4c(c3)OCO4)C(=O)N12 (configuration not stated),"inconclusive [inhibitor, single point]",
Cn1c(=O)[nH]c(=O)c2c1nc(CN1CCN(c3cccc(Cl)c3)CC1)n2CCCc1ccccc1,"inconclusive [inhibitor, single point]",
